The list shows a part of the results. Repeats are few or missing, and single values can be far off.
The compounds below were run on COLO792 (assay: cell count relative to DMSO control; melanoma cells; higher = more viable cells). Details: library dose: standard library concentration; 72 h.
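Note: cells treated in 1,536-well plates, then fixed and DAPI-stained, with nuclei counted from automated high-throughput microscope images.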

| SMILES | cell count [%] |
| --- | --- |
| O=C(O)[C@@H]1[O][Sb](=[O])([O][Sb]2(=[O])[O][C@H]([C@H](O)CO)[C@H](O)[C@H](C(=O)O)[O]2)[O][C@H]([C@H](O)CO)[C@@H]1O (stereo not given in full) [stibogluconate] + CCCCCCCCCCCC1=C(O)C(=O)C=C(O)C1=O [Embelin] (first compound 10 µM, partner dose 6 µM) | 73.8 |
| Cn1nnc2c(C(N)=O)ncn2c1=O [temozolomide] + N#Cc1c(O)c2c(-c3ccc(-c4ccccc4O)cc3)csc2[nH]c1=O [A769662] (first compound 10 µM, partner dose 10 µM) | 103 |
| Cc1cc(N2CCOCC2)cc2[nH]c(-c3c(NC[C@@H](O)c4cccc(Cl)c4)cc[nH]c3=O)nc12 + Cc1cc([N+](=O)[O-])ccc1NS(=O)(=O)c1cc(Cl)ccc1Cl [FH535] (first compound 1 µM, partner dose 5 µM) | 35.7 |
| O=C(Nc1cc(C(F)(F)F)cc(C(F)(F)F)c1)c1cc(Cl)ccc1O + COc1cc2ncnc(Nc3ccc(Oc4ccccc4)cc3)c2cc1OC [SrcI1] (first compound 0.08 µM, partner dose 10 µM) | 78.4 |

Each compound was assayed on COLO800 in the same assay as above. Details: library dose: standard library concentration; 72 h.

| SMILES | cell count [%] |
| --- | --- |
| O=C(O)c1ccc2c(c1)nc(Nc1cccc(Cl)c1)c1ccncc12 + CC(C)CCN1c2nc(Nc3cc(F)c(O)c(F)c3)ncc2N(C)C(=O)C1C [BID1870] (first compound 2 µM, partner dose 1 µM) | 42.3 |
| Cc1cc(N2CCOCC2)cc2[nH]c(-c3c(NC[C@@H](O)c4cccc(Cl)c4)cc[nH]c3=O)nc12 + Cn1cc(/C=C2\C(=O)Nc3cccnc32)c2ccccc21 [GW441756] (first compound 1 µM, partner dose 2 µM) | 22.3 |
| O=C(Nc1ccccc1)c1cc([N+](=O)[O-])ccc1Cl + O=C1NC(=O)/C(=C/c2ccc(-c3ccc(F)cc3O)o2)S1 [AS252424] (first compound 10 µM, partner dose 5 µM) | 55.3 |
| O=C(O)c1ccc2c(c1)nc(Nc1cccc(Cl)c1)c1ccncc12 + COc1ccc(COc2ccc(Cc3cnc(N)nc3N)cc2OC)cc1 [GW2580] (first compound 2 µM, partner dose 5 µM) | 65.9 |
| O=C(O)[C@@H]1[O][Sb](=[O])([O][Sb]2(=[O])[O][C@H]([C@H](O)CO)[C@H](O)[C@H](C(=O)O)[O]2)[O][C@H]([C@H](O)CO)[C@@H]1O (stereo not given in full) [stibogluconate] + Cn1cc(/C=C2\C(=O)Nc3cccnc32)c2ccccc21 [GW441756] (first compound 10 µM, partner dose 2 µM) | 70.9 |
| O=C(O)[C@@H]1[O][Sb](=[O])([O][Sb]2(=[O])[O][C@H]([C@H](O)CO)[C@H](O)[C@H](C(=O)O)[O]2)[O][C@H]([C@H](O)CO)[C@@H]1O (stereo not given in full) [stibogluconate] + Cc1cc([N+](=O)[O-])ccc1NS(=O)(=O)c1cc(Cl)ccc1Cl [FH535] (first compound 10 µM, partner dose 5 µM) | 80.2 |
| O=C(Nc1cc(C(F)(F)F)cc(C(F)(F)F)c1)c1cc(Cl)ccc1O + O=C(Nc1ccccc1)c1cc([N+](=O)[O-])ccc1Cl [GW9662] (first compound 0.08 µM, partner dose 10 µM) | 102 |
| Cc1cc(N2CCOCC2)cc2[nH]c(-c3c(NC[C@@H](O)c4cccc(Cl)c4)cc[nH]c3=O)nc12 + O=S(=O)(c1ccccc1)N(CC(F)(F)F)c1ccc(C(O)(C(F)(F)F)C(F)(F)F)cc1 [T0901317] (first compound 1 µM, partner dose 7 µM) | 35.6 |
| O=C(Nc1cc(C(F)(F)F)cc(C(F)(F)F)c1)c1cc(Cl)ccc1O + O=C1NC(=O)/C(=C/c2ccc(-c3ccc(F)cc3O)o2)S1 [AS252424] (first compound 0.08 µM, partner dose 5 µM) | 76.1 |
| O=C(O)c1ccc2c(c1)nc(Nc1cccc(Cl)c1)c1ccncc12 + CCN(CC)CCCCNc1ncc2cc(-c3cc(OC)cc(OC)c3)c(NC(=O)NC(C)(C)C)nc2n1 [PD173074] (first compound 2 µM, partner dose 0.5 µM) | 45.3 |
| O=C(Nc1cc(C(F)(F)F)cc(C(F)(F)F)c1)c1cc(Cl)ccc1O + COC(=O)c1sccc1S(=O)(=O)Nc1ccc(Nc2ccccc2)cc1OC [GSK0660] (first compound 0.08 µM, partner dose 5 µM) | 118 |
